Source: article PMC3510517
These are yes or no findings as the source states them, for the method shown. Binding seen in cells or lysates may run through a third protein. Some entries that bind do so weakly or less than the wild type.

What was measured:
Assay in all cases: co-IP; endogenous proteins from nuclear extract of Drosophila embryos; extract treated with DNase I and RNase before immunoprecipitation; affinity-purified rabbit antibodies, preimmune serum or IgG as control; western blot
[1] = biological target: T1, ENY2 (Drosophila (endogenous in embryos)) (UniProt Q9VYX1)
T1 sequence: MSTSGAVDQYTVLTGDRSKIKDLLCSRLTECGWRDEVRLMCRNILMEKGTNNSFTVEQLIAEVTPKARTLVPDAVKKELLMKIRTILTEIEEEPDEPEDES

[2] = biological target: T2, Nonstop (Drosophila (endogenous in embryos)) (UniProt Q9VVR1)
T2 sequence: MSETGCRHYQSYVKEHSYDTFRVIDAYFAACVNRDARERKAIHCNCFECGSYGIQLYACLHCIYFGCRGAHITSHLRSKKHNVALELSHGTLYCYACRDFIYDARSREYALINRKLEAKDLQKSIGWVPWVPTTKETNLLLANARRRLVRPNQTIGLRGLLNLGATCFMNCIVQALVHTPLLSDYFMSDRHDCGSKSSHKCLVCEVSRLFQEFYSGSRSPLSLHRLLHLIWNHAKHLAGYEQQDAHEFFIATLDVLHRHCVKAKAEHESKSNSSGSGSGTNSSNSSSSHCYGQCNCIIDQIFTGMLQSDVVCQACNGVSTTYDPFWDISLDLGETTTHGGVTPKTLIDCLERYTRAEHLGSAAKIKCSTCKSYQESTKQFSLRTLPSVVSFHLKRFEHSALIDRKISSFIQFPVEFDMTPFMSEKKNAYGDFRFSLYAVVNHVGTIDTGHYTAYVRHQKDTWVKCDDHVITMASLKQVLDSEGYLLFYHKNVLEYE

[3] = biological target: T3, Sgf11 (Drosophila (endogenous in embryos)) (UniProt Q9VVR6)
T3 sequence: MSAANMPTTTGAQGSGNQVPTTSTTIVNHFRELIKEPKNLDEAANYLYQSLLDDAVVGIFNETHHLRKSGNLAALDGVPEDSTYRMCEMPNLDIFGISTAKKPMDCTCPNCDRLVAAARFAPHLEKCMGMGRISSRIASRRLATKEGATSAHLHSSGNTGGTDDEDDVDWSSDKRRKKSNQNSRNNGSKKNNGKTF

binding [1]: no binding
binding [2]: no binding
binding [3]: binds
B1: cap-binding protein 80 (Cbp80) (protein, UniProt Q7K4N3 1-800)
chain: MSRRRAHDTEDEGYDHRRNKRRRVSENQEIEDRLESLILRVGERSTSSVESNLEGLVSVLEADLGTFRLKILRILSDCAVRMPEKCTVYTTLVGLLNAKNYKFGGEFVDHMVKTFKESLKMCRWDAARYSLRFLADLVNCHVISATSLLQLLDTMIDVSNEDTVPQVRRDWFVFAVLSTLPWVGRDLYEKKESALESLLLRIEVYLNKRSKKHHNALRVWSSDAPHPQEEYLDCLWAQIRKLRQDNWAEKHIPRPYLVFDSILCEALQHNLPTIVPPPHHDNFEYPMPWVVYRMFDYTDCPDGPNLPGAHSIERFLIEEHLHHIIETYHHERKDCAAQLLSFPYKHKIPLEYCIVEVVFAELFHMPTPRYLDICYGSILIELCKLQPATLPQVLAQATEILFMRIDSMNTSCFDRFVNWFSYHLSNFKFTWSWDEWDSCLLLDGEHPRPKFIQEVLQKCLRLSYHQRITEMMPTTYAKLIPLTPVPNYKYANEEAANLPGTTVAHQLVVAIRQKCTPEEVVNILKDIPNSGYSGEEMSDGSFNALKIDVFVQTLLNLGSKSFSHSFAAISKFHSVFRALAETEEAQICILHNIFELWSSHQQMMVVLIDKLLKLQIVDCSAVATWIFSKEMTGEFTKLYLWEILHLTIKKMNKHVIKLNTELSEAKEKLAKADSSSSDSEDDSSHKRKKPITHADKPSEEVVERMEEKLEAANVNQKRLFLIVFQRFIMILSEHLLRSDTDGRDPDTDWYRWTIGRLQQVFLMHHEQVQKYSSTLETLLFTSDLDTHILEVFQQFVALRA
